Measured values as given in PubChem BioAssay AID360 (National Center for Advancing Translational Sciences (NCATS), 2006).
In all, about 48,000 compounds went through this assay and about 550 (1.1%) were called active. About 4% were inconclusive and are not listed. Rule as the data show it: active = potency below about 15 µM; inconclusive = mostly about 16 µM to 33 µM; inactive = weaker than that. The list shows a part of the results.

These compounds were tested against Lysosomal acid glucosylceramidase (Homo sapiens) (UniProt P04062) (assay: Glucocerebrosidase). Conditions: purified enzyme, resorufin glucoside fluorescence (screen aimed at inhibitors), 20 min.
Method in brief: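 Compounds titrated against 0.2 nM normal enzyme, 30 uM resorufin beta-D-glucopyranoside substrate, citrate/phosphate buffer with taurocholate and tween-20, pH 5.9. Reaction ran 20 min at room temperature; fluorescence (Ex 548/Em 600) gave AC50.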
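Also: the screen sought inhibitors.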
Potency is read from the fitted curve at half-maximal effect.

Sequence of UniProt P04062 (P04062 whole entry, looked up): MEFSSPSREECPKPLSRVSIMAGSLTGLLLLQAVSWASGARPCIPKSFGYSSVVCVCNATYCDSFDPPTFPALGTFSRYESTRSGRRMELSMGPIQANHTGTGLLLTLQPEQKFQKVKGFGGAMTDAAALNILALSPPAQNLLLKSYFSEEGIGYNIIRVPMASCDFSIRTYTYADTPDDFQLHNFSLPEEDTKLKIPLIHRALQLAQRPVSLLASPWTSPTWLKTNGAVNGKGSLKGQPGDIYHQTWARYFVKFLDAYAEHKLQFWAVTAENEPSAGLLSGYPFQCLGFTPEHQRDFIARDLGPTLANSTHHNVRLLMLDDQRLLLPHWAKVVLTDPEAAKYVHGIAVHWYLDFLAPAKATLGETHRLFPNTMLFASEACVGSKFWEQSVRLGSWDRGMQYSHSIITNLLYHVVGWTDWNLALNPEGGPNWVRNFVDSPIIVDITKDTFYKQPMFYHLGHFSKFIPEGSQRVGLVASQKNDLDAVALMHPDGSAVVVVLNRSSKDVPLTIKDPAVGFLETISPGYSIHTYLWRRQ

Potency, inactive:
O=c1c(N2CCOCC2)nsn1Cc1ccccc1 > 76.9 µM, c1cn(CC2(Cn3ccnc3)COC2)cn1 > 76.9 µM, Cc1cc(NC(=O)CCC(=O)N(CCC(C)C)CC(=O)NCC2CCCO2)no1 (centres undefined) > 76.9 µM, CC(C)N1C(=O)CCC1C(=O)NC1CCCC1 (centres undefined) > 76.9 µM, O=C(CSc1nnc(-c2cnccn2)n1Cc1ccco1)Nc1ccc(Br)cc1 > 76.9 µM, O=C(COc1ccccc1)N1CCN(c2nnc(-c3ccccc3)c3ccccc23)CC1 > 76.9 µM, CCCc1nnc(NC(=O)c2c(O)c3cccc4c3n(c2=O)CC4)s1 > 76.9 µM, CCCCCCc1ccc(OCC(=O)O)cc1OCC(=O)O > 76.9 µM, CC1CCCN(C(=O)COC(=O)c2n[nH]c3ccccc23)C1 (centres undefined) > 76.9 µM, Cc1ccc(CSC2=Nc3ccccc3C3=NC(CCC(=O)NCc4ccco4)C(=O)N23)cc1 (centres undefined) > 76.9 µM, CCN(c1cccc(C)c1)S(=O)(=O)c1ccc2c(c1)CCN2C(C)=O > 76.9 µM, CCOC(=O)CCCNS(=O)(=O)c1c(C)ccc2nsnc12 > 76.9 µM, O=C(c1ccccc1)N1CC(COc2ccccc2)OC(c2cccnc2)O1 (centres undefined) > 76.9 µM, CCOC(=O)C1(N(CC)CC)Sc2cc(C)ccc2NC1=O (centres undefined) > 76.9 µM, CCN(CC)C(=O)C1CCCN(Cc2ccc(F)c(F)c2)C1 (centres undefined) > 76.9 µM, Cc1[nH]nc2c1C(c1ccoc1)C(C#N)=C(N)O2 (centres undefined) > 76.9 µM, COc1nc(-c2ccccc2)ccc1-c1noc(-c2ccc(F)cc2)n1 > 76.9 µM, Cc1cc(C)cc(N(C(=O)C2CCCC2)C2C=CS(=O)(=O)C2)c1 (centres undefined) > 76.9 µM, COC(=O)CN(Cc1ccco1)S(=O)(=O)c1ccccc1 > 76.9 µM, COc1ccc(CCNC(=O)c2nnn(CC(=O)Nc3ccccc3)c2N)cc1OC > 76.9 µM, c1ccc2sc(SCc3ccc(-c4nnco4)cc3)nc2c1 > 76.9 µM, COc1cc(OC)c(-c2nc3cnccc3n2C)cc1OC > 76.9 µM, CCOC(=O)C1CCCN(C(=O)c2cccs2)C1 (centres undefined) > 76.9 µM, CCOC(=O)c1cn(-c2ccccc2)nc1-c1ccncc1 > 76.9 µM, CCCN1C2=NS(=O)(=O)CCN2c2ccccc21 > 76.9 µM, CC(C)Cn1cc(C(=O)NCc2cccs2)c2c3ccccc3n(C)c2c1=O > 76.9 µM, O=C(C1CCCN(S(=O)(=O)c2ccc(F)cc2)C1)N(Cc1cccs1)C1CC1 (centres undefined) > 76.9 µM, COc1ccc2c(c1)CCc1c(C(=O)N3CCOCC3)noc1-2 > 76.9 µM, CCOC(=O)c1cnc(-n2cc(C)cn2)nc1NCc1ccc2c(c1)OCO2 > 76.9 µM, COc1ccccc1C1C(C(=O)NCc2ccccc2)=C(C)Nc2ncnn21 (centres undefined) > 76.9 µM, CCOC(=O)Cc1csc(NC(=O)COc2ccc(N(C)S(=O)(=O)c3cccs3)cc2)n1 > 76.9 µM, COC(=O)CN(c1ccc(F)cc1)S(=O)(=O)c1ccccc1 > 76.9 µM, CCOC(=O)Nc1cc2c(cc1C(C)=O)OCO2 > 76.9 µM, CCC1CCCCN1CC(=O)Nc1cc(C)nn1-c1nc(C)cc(C)n1 (centres undefined) > 76.9 µM, CCOc1ccccc1NC(=O)c1ccc(S(=O)(=O)N2CCOCC2)cc1 > 76.9 µM, CCn1c(C)c(C(C)=O)c(N2CCN(C(=O)c3ccco3)CC2)nc1=S > 76.9 µM, COc1ccc(Cn2c(=O)[nH]c3cc(C(=O)NCCCN4CCCC4)ccc3c2=O)cc1 > 76.9 µM, Cc1cccc(N(C)C(=O)c2coc(=O)c3ccccc23)c1 > 76.9 µM, Cc1ccccc1NS(=O)(=O)c1ccc2[nH]cc(C(=O)N(C)Cc3ccco3)c(=O)c2c1 > 76.9 µM, COCCCNC(=O)c1cn(C)c(=O)c2cc(OC)c(OC)cc12 > 76.9 µM, Cc1ccnc(NC(=O)CCC(=O)N(CC(=O)NC2CCCCC2)c2ccc3c(c2)OCO3)c1 > 76.9 µM, CC1CCCCC1NC(=O)CSc1nnc(-c2ccccc2)n1N (centres undefined) > 76.9 µM, COc1ccc(Oc2nc(C)cc(C)c2C#N)cc1 > 76.9 µM, Cc1nn(CC(=O)Nc2nnc(CC(=O)N3CCCC3)s2)c(=O)c2ccccc12 > 76.9 µM, Cc1cc(OCC(=O)Nc2ccc3c(c2)OCCO3)ccc1Cl > 76.9 µM, CCCn1c(SCC(=O)O)nc2ccccc21 > 76.9 µM, COc1ccc(OCCN2CCN(C3CC(=O)N(CCC(C)C)C3=O)CC2)cc1 (centres undefined) > 76.9 µM, Cc1ccc(C)c(NC(=O)CS(=O)(=O)c2cn(C)c3ccccc23)c1 > 76.9 µM, O=C(CS(=O)(=O)Cc1ccccc1)NCC1CCCO1 (centres undefined) > 76.9 µM, CC(C)c1nc2oc3c(N4CCNCC4)ncnc3c2c2c1CCC2 > 76.9 µM, Cc1ccc(NC2=NCC(=O)N2Cc2ccc3c(c2)OCO3)cc1 > 76.9 µM, COCc1nnc(NC(=O)c2ccc(S(=O)(=O)N(C)C3CCCCC3)cc2)o1, CCOC(=O)N1CCN(C(=O)c2ccc(CNS(=O)(=O)c3ccc(OC)cc3)cc2)CC1 > 76.9 µM, Cc1ccc2c(c1)c1c3n2CCN(C(=O)Cn2c(-c4ccccc4)noc2=O)C3CCC1 (centres undefined) > 76.9 µM, Cc1nn(C(=O)c2cccs2)c(C)c1CN1C(=O)c2ccccc2C1=O > 76.9 µM, CC(C)c1nc(SCC(=O)NCc2ccccc2)n[nH]1 > 76.9 µM, O=C(c1ccco1)N1CCN(C(c2ccccc2Cl)c2nnnn2Cc2ccco2)CC1 (centres undefined) > 76.9 µM, Cc1cc(=O)c2ccccc2s1 > 76.9 µM, CCn1cc(Br)c(C(=O)Nc2ccc(C(=O)OC(C)C)cc2)n1 > 76.9 µM, COc1cc(C2Nc3cccc4cccc(c34)N2)ccc1OC(C)=O > 76.9 µM, O=C(O)CN1C(=O)C2(OCCCO2)c2ccccc21 > 76.9 µM, Cc1nccn1-c1c2c(c(C#N)c3nc4ccccc4n13)CCCC2 > 76.9 µM, O=c1cc(-c2ccc(Cl)c(Cl)c2)[nH][nH]1 > 76.9 µM, CN(C)S(=O)(=O)c1ccc(C(=O)Nc2nnc(Cc3ccccc3)s2)cc1 > 76.9 µM, COC(=O)CN1C(=O)N(c2ccccc2)C(N(O)C(=O)Nc2ccccc2)C1(C)C (centres undefined) > 76.9 µM, N#CC1=C(N)Oc2n[nH]c(-c3ccc(F)cc3)c2C1c1cccc(OC(=O)N2CCOCC2)c1 (centres undefined) > 76.9 µM, CC1(C)NC(=O)N(CCOc2cccc(Oc3ccccc3)c2)C1=O > 76.9 µM, COc1cc2c(cc1OC)C1=C(C#N)COCN1CC2 > 76.9 µM, Cc1ccc(OCCn2nc3ccccc3n2)c(C)c1 > 76.9 µM, Cc1nc2ccccc2c(=O)n1CC(=O)N1CCOCC1 > 76.9 µM, O=C(O)CCC(=O)N1CCN(c2ccc(C(=O)c3ccc(F)cc3)cc2)CC1 > 76.9 µM, Cn1nnnc1SCC(=O)N1c2ccccc2Sc2ccccc21, Cc1ccc2cc(C(c3nnnn3C(C)(C)C)N3CCCC3)c(=O)[nH]c2c1C (centres undefined) > 76.9 µM, COc1ccc(S(=O)(=O)N2CCCC2C(=O)Nc2nc3c(s2)CCCC3)cc1 (centres undefined) > 76.9 µM, Cc1ccc(CSC2=Nc3ccccc3C3=NC(CC(=O)NCc4ccco4)C(=O)N23)cc1 (centres undefined) > 76.9 µM, O=C(CNC(=O)c1ccccc1)NC1(C(=O)NC2CCCC2)CCCCC1 > 76.9 µM, CCOc1ccc(CNC(=O)NS(=O)(=O)c2ccc(OC)cc2)cc1 > 76.9 µM, O=C(CCCCCN1C(=O)c2ccccc2C1=O)NC1CCCC1 > 76.9 µM, COC(=O)CCP(=O)(O)Cc1ccccc1CP(=O)(O)CCC(=O)OC > 76.9 µM, C=C(C)CSc1nnc([C@@H](NC(=O)OC(C)(C)C)C(C)CC)o1 (some centres undefined) > 76.9 µM, CCCOc1ccc(/C(O)=C2\C(=O)C(=O)N(CCCN(C)C)C23C(=O)N(C)c2ccccc23)cc1 (centres undefined) > 76.9 µM, CCOC(=O)C1CCCN(C(=O)CS(=O)(=O)Cc2ccccc2)C1 (centres undefined) > 76.9 µM, O=C(Cn1c(CN2CCCCC2)nc2ccccc2c1=O)Nc1ccccc1 > 76.9 µM, CCC(=O)Nc1ccc(S(=O)(=O)c2ccc(NC(=O)CC)cc2)cc1 > 76.9 µM, C=CCn1c(C)cc(C(=O)COC(=O)C2CC(=O)N(Cc3ccccc3)C2)c1C (centres undefined) > 76.9 µM, O=C(NCc1ccc2c(c1)OCO2)C1CCN(C(=O)Nc2ccc(Cl)cc2)CC1 > 76.9 µM, COc1cc(S(=O)(=O)N2CCOCC2)ccc1NC(=O)c1cc2c(s1)CCC2 > 76.9 µM, CCCOc1cc(CC(=O)NCc2ccco2)ccc1OC > 76.9 µM, CCOC(=O)NC(=O)CSc1nc(C)cc(C(F)(F)F)c1C#N > 76.9 µM
